According to the supplement of paper PMC7826260:
The list shows a part of the results. Each Rep nickase domain was tested in vitro on the same pool of single strands (3 µM enzyme, 1 h, 37 °C); shown is the middle of each 90-letter strand. Uncut reads are compared with the no-enzyme pool on a log2 scale; uncut sequences lie near 0, cut ones below; no hit call is given. Reads are scaled to the total; values above 0 arise when much of the pool is cut.

These sequences were tested on T1, Rep nickase domain of tomato golden mosaic virus (assay: uncleaved DNA left, log2 of reads against the no-enzyme library (log2 ratio); higher = less cleavage (more negative = more Rep cleavage of the k-mer); sequences stand for … in CTCGTCCG…ACCGGAGA).
T1 sequence (residues 1-124 of Rep, tag left off): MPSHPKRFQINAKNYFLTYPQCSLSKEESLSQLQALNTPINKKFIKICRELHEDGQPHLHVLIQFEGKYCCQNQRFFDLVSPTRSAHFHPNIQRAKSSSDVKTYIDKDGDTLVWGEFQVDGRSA
Description: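 A pool of 90-nt single-stranded DNAs with seven random bases just before the constant AC of the nick site (name = the seven bases) was cut by 3 µM recombinant His6-SUMO-tagged Rep nickase domain (300 nM DNA, 50 mM HEPES pH 8.0, 50 mM NaCl, 1 mM MnCl2, 1 h, 37 °C, three replicates). Uncut DNA was amplified and sequenced.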

Sequence | uncleaved DNA left (log2)
GTGACCC | -0.0138
TTACGAC | -0.00202
ATGCACC | -0.105
GCCTTCA | 0.144
CGTCCCT | -0.115
TTGGATC | -0.00759
AAACAGG | 0.101
GTATTTG | 0.107
CTTCTAG | -0.0221
TCCTTTG | -0.0269
AAACATC | -0.0578
GGTTACA | 0.0471
GCGCTCT | 0.0263
GACCTGG | 0.14
CTAAGGA | 0.0369
TTGAAAC | 0.0262
TCCCATA | -0.0484
AATCGGG | 0.067
CAATCTC | -1.33
GCGCCCT | -0.161

Sequence | uncleaved DNA left (log2)
GTGCCAA | 0.168
GTTGTAC | 0.0385
CCGAGCG | -0.0271
CTTCGAT | -0.0307
ACTTGGG | 0.0638
TAGGCCG | -0.133
CCGTCCG | 0.0897
TGGGTTA | -0.0359
GACTAGG | 0.242
ACATGCA | 0.038
ATGTCTG | -0.0324
ACAAATC | 0.2
GTACTAT | 0.228
CTCTTTC | -0.167
TACGTTG | 0.0859
CACGCTT | -0.0731
TGGAACG | -0.0279
ATCAATC | 0.092
GCAGTGT | -0.0131
TCAGAGG | 0.242
